Reference: PubChem BioAssay AID1963864 (Molecular Pharmacology Branch, DTP, NCI, 2024)
Some entries of the source have several records that differ or are many. This list holds those alone. There may be further records. Results that share an entry are repeated measurements (runs, samples, wells, individuals or studies). A date in brackets names the month of the test. Marks such as (2×) say how often a value occurs here.

Test system: KRAS PDC multicell spheroid viability
Assay: Anticancer human tumor 521955-158-R6-J3-PDC patient-derived pancreatic carcinoma cell line growth inhibition [KRAS2]
Conditions: for viability, T/C: stronger effect = lower value; for IC50: compound alone
Excerpt: Multicellular complex tumor spheroid response to RAS pathway inhibitors in combination with a targeted agents in patient-derived cell lines with oncogenic KRAS variants from multiple cancer types
A high-throughput screen of multi-cell type tumor spheroids was designed to identify active combinations of targeted small molecules and KRAS pathway inhibitors. Complex spheroids include a stromal component modeled by human endothelial cells (HUVEC) and fibroblasts modeled by human mesenchymal stem cells (MSCs). The concentration ranges selected for each drug and investigational agent were based upon clinically achievable concentrations if the clinical Cmax of the agent was known.
Compounds. The drugs and investigational agents: BI-3406 (NSC825286), BAY-293 (NSC824723), batoprotafib (TNO155; NSC825523), sotorasib (AMG 510; NSC818433), MRTX1257 (NSC819558), elimusertib (BAY 1895344; NSC800525), molibresib (GSK525762; NSC774829), temuterkib (LY3214996; NSC803410), venetoclax (NSC766270), alisertib (NSC759677), olaparib (NSC753686), talazoparib (NSC767125), erdafitinib (NSC781556), ipatasertib (NSC767898), cabozantinib (NSC761068), nintedanib (NSC756659), abemaciclib (NSC768073), docetaxel (NSC628503), trametinib (NSC758246), and sapanisertib (NSC764658) were obtained from the National Cancer Institute (NCI) Developmental Therapeutics Program Chemical Repository. The FDA-approved anticancer drug set is available from the Developmental Therapeutics Program. […] The stock solutions were prepared in dimethyl sulfoxide (DMSO, Sigma-Aldrich, St. Louis, MO, cat. D2650) at 800-fold the tested concentration and stored at -70 degrees C prior to their use. All drugs and investigational agents were tested over a range starting from a high concentration at or near the clinical Cmax and decreasing in half-log increments. If the clinical Cmax for an agent had not been determined, the highest concentration tested was 10 microM.
Cell Culture. All cells were maintained in an incubator at 37 degrees C and 5% CO2 with 95% humidity. The PDC lines were cultured according to standard operating procedures established by the NCI PDMR (https://pdmr.cancer.gov/sops/default.htm). Briefly, all PDCs were thawed and cultured in Matrigel-coated flasks prepared with a working solution of 1X Ham's F-12 nutrient mix, without supplementation (Invitrogen, Waltham, MA, cat. 11765054), 100 U/mL penicillin-streptomycin (Invitrogen, cat. 15140122), and 2.5% Matrigel (Corning Inc., Corning, NY, cat. 354248) for the first three passages. All PDCs were cultured in complete DMEM/F-12 media containing advanced DMEM/F-12 (Invitrogen, cat. 12634028), 4.9% defined fetal bovine serum, heat inactivated (HyClone Laboratories Inc., Logan, UT, cat. SH30070.03HI), 389 ng/mL hydrocortisone (Sigma-Aldrich, cat. H4001), 9.7 ng/mL human EGF recombinant protein (Invitrogen, cat. PHG0313), 23.4 microg/mL adenine (Sigma-Aldrich, cat. A2786), 97.3 U/mL penicillin-streptomycin (Invitrogen, cat. 15140122), 1.9 mM L-glutamine (Invitrogen, cat. 25030081), and 9.7 microM Y-27632 dihydrochloride (Tocris Bioscience, Bristol, United Kingdom, cat. 1254). The PDCs were cultured in complete DMEM/F12 media without 9.7 microM Y-27632 dihydrochloride for at least two passages prior to the screen. The established cell line HOP-62 was cultured in RPMI 1640 medium, HEPES (Invitrogen, cat. 22400105) with 10% defined fetal bovine serum (HyClone Laboratories Inc., cat. SH30070.03) and 2 mM L-glutamine (Invitrogen, cat. 25030081). The pooled donor HUVEC were cultured in endothelial cell growth medium 2 (PromoCell, Heidelberg, Germany, cat. C-22011) and the hMSC were cultured in mesenchymal stem cell growth medium 2 (PromoCell, cat. C-28009). For all experiments, HUVEC and hMSC were used at passages </=5, while the malignant cell lines were used at passages </=15. […]
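Note: drug exposure lasted seven days.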
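Throughout, for viability, T/C: 100% = DMSO vehicle wells and lower means fewer viable cells.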

Structure (SMILES) | viability, T/C (compound alone 1 µM) | viability, T/C (compound alone 3.16 µM) | viability, T/C (compound alone 10 µM) | further results
COc1cc2nc(C)nc(NC(C)c3cc(N)cc(C(F)(F)F)c3)c2cc1OC1CCOC1 (stereo unspecified) | 72.3 (2×), 119, 73, 78.2, 83.3, 93.5, 87.5, 92.6, 83.1, 83.9% [2021-08] and 88.4, 77.6, 92.5, 92.7, 84.6, 78.1% [2021-09] | 66.1, 77.6, 54.2, 70.4, 67.9, 80.1, 73, 76.3, 69.3, 68.7, 67.5% [2021-08] and 79.2, 75.8, 79.8, 83.3, 71, 68.7% [2021-09] | 66.8, 60.1, 57.9, 30.9, 27.6, 11.9, 24.6, 40.8, 42.6, 19.9, 39.7% [2021-08] and 21.5, 52.1, 19.2, 63.7, 30.5, 52.7% [2021-09] | IC50 (run of 08/19/2021): > 10 µM, 5.48 µM, 5.05 µM, 5.26 µM; IC50 (run of 09/02/2021): 5.67 µM, > 10 µM, 5.54 µM, 5.74 µM
CC1(C)CCC(CN2CCN(c3ccc(C(=O)NS(=O)(=O)c4ccc(NCC5CCOCC5)c([N+](=O)[O-])c4)c(Oc4cnc5[nH]ccc5c4)c3)CC2)=C(c2ccc(Cl)cc2)C1 | – | 89.2, 60.2, 80.8, 87.5, 74.8% | 41.6, 17.6, 34.9, 54.1, 52.2% | IC50: 8.17 µM, 4.19 µM, 6.85 µM, > 10 µM
Cn1ncnc1[C@H]1c2n[nH]c(=O)c3cc(F)cc(c23)N[C@@H]1c1ccc(F)cc1 | – | – | – | viability, T/C (compound alone 0.00316 µM): 107, 103, 94.2, 78.5, 79.6%; viability, T/C (compound alone 0.0316 µM): 105, 107, 90.4, 98.5, 79.5%
CNCc1ccccc1-c1csc(C(C)Nc2nc(C)nc3cc(OC)c(OC)cc23)c1 (stereo unspecified) | 68.5, 87.2, 57.8, 74.7, 63.5, 83.7, 75.4, 82, 88.6, 69.3, 72.8% [2021-08] and 69.8, 63.8, 70.8, 75.3, 73.4% [2021-09] | 87, 2.04, 1.59, 1.16, 0.67, 2.89, 0.48, 1.24, 1.07, 0.72, 2.03% [2021-08] and 0.26, 0.29, 0.37, 0.35, 0.25% [2021-09] | – | IC50 (run of 08/19/2021): 4.69, 1.57, 1.17, 1.47, 1.28, 1.62 µM
COc1cc2nccc(Oc3ccc(NC(=O)C4(C(=O)Nc5ccc(F)cc5)CC4)cc3)c2cc1OC | 101, 120, 105, 91.1, 89.5% | 111, 131, 122, 113, 100% | 112, 130, 121, 94.3, 93.2% | viability, T/C (compound alone 0.0316 µM): 92.3, 113, 111, 86.6, 100%; viability, T/C (compound alone 0.1 µM): 89.5, 111, 115, 95.7, 94%
CC1OCC2(CCN(c3cnc(Sc4ccnc(N)c4Cl)c(N)n3)CC2)C1N (stereo unspecified) | 77, 101, 73.8, 76.6, 98.3, 93.7, 91.8, 90.7, 94.9, 89.6, 84.6% [2021-08] and 99.9, 108, 105, 88.8, 95.4, 88.1, 88.5, 79.1% [2021-09] | 99.5, 99.8, 89.8, 82.9, 97.5, 109, 106, 105 (2×), 99.6, 93.8% [2021-08] and 101, 116, 114, 96.5, 104, 108, 103, 88.7% [2021-09] | 88.3, 101, 80.7, 92.4, 95, 109, 102, 110, 113, 107, 99% [2021-08] and 110 (2×), 125, 106, 107, 114, 99, 91.5% [2021-09] | viability, T/C (compound alone 0.1 µM): 79.9, 80.3, 80.2, 77.5, 87.2, 99.3, 91.1, 86.7, 92, 82.2, 85.6% [2021-08] and 107, 95.9, 93.7, 88.4, 89.5, 89.2, 81.8, 77.7% [2021-09]
C=CC(=O)N1CCN(c2nc(OCC3CCCN3C)nc3c2CCN(c2cccc4cccc(C)c24)C3)CC1CC#N (stereo unspecified) | 83.9, 95.4, 91.5, 73.6, 77.4, 74.2, 76.4, 81.3, 85.9, 89.5, 67.4% [2021-08] and 86.6, 79.8, 74.4, 87.7, 77.9% [2021-09] | 78.6, 25.2, 41.1, 33.3, 12.1, 26.1, 38.8, 61.8, 48.5, 46.9, 38.1% [2021-08] and 15.2, 39.7, 34, 46.2, 26.5% [2021-09] | – | viability, T/C (compound alone 0.316 µM): 80.8, 103, 99.2, 87.3, 81, 86.6, 100, 88.3, 96.8, 105, 76.9% [2021-08] and 95.2, 90.8, 91.9, 103, 91.3% [2021-09]; IC50 (run of 08/19/2021): > 3.16 µM, 2.11 µM, 2.59 µM, 1.96 µM, 1.56 µM, 1.78 µM; IC50 (run of 08/26/2021): 2.24 µM, > 3.16 µM, 3.03 µM, 2.94 µM, 1.95 µM
O=C(c1cc(Cc2n[nH]c(=O)c3ccccc23)ccc1F)N1CCN(C(=O)C2CC2)CC1 | 108, 90.2, 80.5, 75, 77.7% | – | 107, 113, 85.2, 89.5, 81.8% | viability, T/C (compound alone 0.1 µM): 104, 94.8, 72.7, 95.4, 87.4%
COc1cc(Nc2ncc3c(n2)-c2ccc(Cl)cc2C(c2c(F)cccc2OC)=NC3)ccc1C(=O)O | – | 84.6, 92.3, 112, 97.5, 104% | 75.2, 96.7, 110, 95.2, 96.4% | –
CC(=O)Nc1cccc(-n2c(=O)n(C3CC3)c(=O)c3c(Nc4ccc(I)cc4F)n(C)c(=O)c(C)c32)c1 | – | – | – | IC50: 24.1 nM, > 31.6 nM, 22.9 nM, 20.9 nM, 30.8 nM; viability, T/C (compound alone 0.001 µM): 99.2, 109, 116, 94.2, 89.9%
C=CC(=O)N1CCN(c2nc(=O)n(-c3c(C)ccnc3C(C)C)c3nc(-c4c(O)cccc4F)c(F)cc23)C(C)C1 (stereo unspecified) | 87.4, 116, 103, 97.1, 98.7, 85.6, 102, 95.9, 105, 114, 97.5% [2021-08] and 86.6, 90.5, 92.5, 98.8, 98.9% [2021-09] | 111, 112, 104, 90.9, 95.5, 70.7, 89.5, 94.7, 110, 101, 91.3% [2021-08] and 83.8, 95.8, 92, 95.3, 91.2% [2021-09] | 120, 73.5, 92.2, 93.1, 80.5, 78.6, 69.7, 95.2, 98, 76.6, 75.9% [2021-08] and 76.9, 72.8, 67.3, 81.5, 83.7% [2021-09] | –
CCNC(=O)CC1N=C(c2ccc(Cl)cc2)c2cc(OC)ccc2-n2c(C)nnc21 (stereo unspecified) | 77.7, 86.7, 82.9, 107, 80.8% | – | – | –
COC(=O)c1ccc2c(C(=Nc3ccc(N(C)C(=O)CN4CCN(C)CC4)cc3)c3ccccc3)c(O)[nH]c2c1 | 110, 134, 132, 130, 101% | 71.7, 73, 47.8, 55.4, 43.2% | – | viability, T/C (compound alone 0.316 µM): 111, 118, 130, 106, 101%
